Results: the antibiotic and cytotoxicity screens of Wong et al. (2023)
The other results are listed elsewhere or left out.

System: S. aureus RN4220
Assay: growth inhibition call (relative growth <= 0.2)
Conditions: 50 µM

Growth inhibition call, inactive:
C[C@@H]1CCCCO[C@H](CN(C)C(=O)Nc2ccc(C(F)(F)F)cc2)[C@H](C)CN([C@@H](C)CO)C(=O)c2cc(NS(=O)(=O)c3ccccc3)ccc2O1
CC(C)NC(=O)Nc1ccc2c(c1)C(=O)N([C@@H](C)CO)C[C@@H](C)[C@@H](CN(C)S(C)(=O)=O)OCCCC[C@@H](C)O2
CC(C)CC#Cc1ccc2c(c1)O[C@@H](CN(C)CC1CCOCC1)[C@H](C)CN([C@H](C)CO)S2(=O)=O
O=C(C[C@H]1C[C@@H]2c3cc(NS(=O)(=O)c4ccc(F)cc4)ccc3O[C@@H]2[C@@H](CO)O1)NC1CCCCC1
c1ccc(-c2ccc([C@H](c3ccccc3)n3ccnc3)cc2)cc1
CC(C)(C)OC(=O)C[C@H]1CC=CC[C@H](CC(=O)NCCO)C(=O)N[C@H](Cc2ccccc2)COC1=O
CCS(=O)(=O)N(C)C[C@H]1OCc2ccccc2-c2c(n(C)c3ccccc23)C(=O)N([C@H](C)CO)C[C@H]1C
C[C@@H]1CCCCO[C@@H](CN(C)S(=O)(=O)c2ccc(F)cc2)[C@@H](C)CN([C@H](C)CO)C(=O)c2cc(NC(=O)Nc3ccc(F)cc3)ccc2O1
O=C(C[C@H]1CC[C@H]2[C@@H](COC[C@@H](O)CN2S(=O)(=O)c2ccccc2F)O1)NCc1ccccc1F
C[C@@H]1CN([C@H](C)CO)C(=O)Cc2cc(NC(=O)CCN3CCOCC3)ccc2O[C@H]1CN(C)S(=O)(=O)c1ccc(F)cc1
C[C@@H]1CN([C@H](C)CO)C(=O)Cc2cc(NC(=O)Cn3cnnn3)ccc2O[C@@H]1CN(C)S(=O)(=O)c1ccc(Cl)cc1
C[C@H](CO)N1C[C@H](C)[C@@H](CN(C)S(C)(=O)=O)Oc2ccc(NC(=O)Nc3ccc4c(c3)OCO4)cc2C1=O
C=CC1=C(C)C(=Cc2[nH]c(Cc3[nH]c(C=C4NC(=O)C(C)=C4C=C)c(C)c3CCC(=O)O)c(CCC(=O)O)c2C)NC1=O
C[C@H](CO)N1C[C@H](C)[C@H](CN(C)C(=O)Nc2cccc3ccccc23)Oc2ncc(-c3ccc(F)cc3)cc2C1=O
C[C@H](CO)N1C[C@H](C)[C@H](CN(C)Cc2cncnc2)Oc2cc(C#CC3CCCC3)ccc2S1(=O)=O
COc1ccc(-c2cnc3c(c2)C(=O)N([C@@H](C)CO)C[C@@H](C)[C@H](CN(C)C(=O)C2CCOCC2)O3)cc1
C[C@@H]1CN([C@H](C)CO)C(=O)c2cc(NC(=O)Cc3ccccc3)ccc2O[C@@H](C)CCCCO[C@@H]1CN(C)S(=O)(=O)c1cccs1
C[C@@H]1CCCCO[C@@H](CN(C)C(=O)CCC(F)(F)F)[C@@H](C)CN([C@H](C)CO)C(=O)c2cc(NC(=O)c3ccccc3)ccc2O1
COc1ccc(COCC23Oc4ccccc4[C@H]([C@H]2COC(=O)c2ccccc2)n2c(c4ccccc4c(-c4ccccc4)c2=O)N3C)cc1
CCOCCOCCOc1oc(C(=O)NC2CCCCC2)c(-c2ccc(Cl)cc2)c1S(=O)(=O)c1ccc(Cl)cc1
C[C@@H]1CCCCO[C@H](CN(C)Cc2ccc(Cl)c(Cl)c2)[C@@H](C)CN([C@H](C)CO)C(=O)c2cc(NS(=O)(=O)c3cn(C)cn3)ccc2O1
C[C@@H]1ON(c2ccc(C(=O)OC(C)(C)C)cc2)[C@H](c2ccc(Br)cc2)[C@H]1C(=O)N1C(=O)OC[C@H]1Cc1ccccc1
C[C@H](CO)N1C[C@H](C)[C@H](CN(C)Cc2ccccc2)Oc2ccc(NC(=O)CCCCCC(=O)Nc3ccccc3N)cc2CC1=O
O=C(O)CCC(=O)N[C@H]1CCCCNC1=O
Cc1noc(C)c1S(=O)(=O)Nc1ccc2c(c1)C(=O)N([C@@H](C)CO)C[C@@H](C)[C@H](CN(C)C)OCCCC[C@@H](C)O2
C[C@@H]1O[C@@H](O[C@@H]2[C@@H](O)[C@H](C)O[C@@H](OC[C@H]3O[C@@H](Oc4c(-c5ccc(O)cc5)oc5cc(O)cc(O)c5c4=O)[C@H](O)[C@@H](O)[C@H]3O)[C@@H]2O)[C@H](O)[C@H](O)[C@H]1O
CO[C@H]1CN(C)C(=O)c2cc(NC(=O)Nc3ccc(Cl)cc3)ccc2OC[C@H](C)N(C(=O)Nc2c(C)noc2C)C[C@H]1C
C[C@H]1CN([C@@H](C)CO)C(=O)c2c(c3ccccc3n2C)-c2ccccc2CO[C@@H]1CN(C)Cc1ccc(F)cc1
